Where no end group is shown, it is not given here. [ ]: non-standard residue; d: D form. Hyp = O=C(O)[C@@H]1C[C@@H](O)CN1
Test system: RAW 264.7 (Mouse leukaemic monocyte macrophage cell line) cells
Assay: Phagocytosis assay (Fluorescein-labeled Escherichia coli, flow cytometry)
Format: cell-based
Conditions: 10 micrograms per ml

Row | Substance | increase on the phagocytic activity of murine macrophages [%]
1 | PS[Hyp]GDW-OH [peptide 1] | 22.9
2 | Tyr-Gly-Gly-Phe-Met-Thr-Ser-Glu-Lys-Ser-Gln-Thr-Pro-Leu-Val-Thr-OH (YGGFMTSEKSQTPLVT-OH) [peptide 2, Alpha-Endorphin] | 11.4

Source: patent publication US20100190716A1, “USE OF A PLATELET FIBRINOGEN RECEPTOR HEXAPEPTIDE ANTAGONIST AND ALPHA-ENDORPHIN AS THERAPEUTIC AGENTS” (priority 2007, published 2010)
